According to the supplement of paper PMC3334620:
Whole data set: some 33,000 sequences, median “E-score (-0.5 to 0.5)” near -0.017, cut for the highest 2% near 0.3. This is one part of the list.

Biological target: T1, Sut1 (UniProt P53032)
T1 sequence: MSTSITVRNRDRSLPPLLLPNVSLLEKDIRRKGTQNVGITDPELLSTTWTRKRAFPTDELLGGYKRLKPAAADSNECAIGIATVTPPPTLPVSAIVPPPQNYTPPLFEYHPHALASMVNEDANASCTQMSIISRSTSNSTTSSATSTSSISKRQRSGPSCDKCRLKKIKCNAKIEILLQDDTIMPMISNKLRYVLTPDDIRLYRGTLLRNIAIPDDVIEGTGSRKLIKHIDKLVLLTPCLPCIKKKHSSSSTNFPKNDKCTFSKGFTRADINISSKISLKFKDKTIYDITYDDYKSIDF
Assay: PBM E-score (8-mer binding enrichment) (E-score (-0.5 to 0.5)); higher = stronger / more preferred TF binding; most listed sequences are background and not binding sites
Settings: protein concentration: 200 nM; construct: GST-full length
In short: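 Detection of bound protein used fluorescent anti-GST, with scans normalised by masliner. The proteins were GST-tagged yeast transcription factors applied at about 100-200 nM to universal all-10-mer Agilent arrays made double-stranded by primer extension. Each ungapped eight-base word, pooled with its reverse complement, was scored with an E-score from the Universal PBM Analysis Suite.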

Sequence | PBM E-score
GTACCCGA | -0.24
CTCTCCGA | 0.257
ACACTGCT | -0.293
CATTTTGG | -0.0637
GATACACA | 0.0383
AGAAATAG | 0.1
CTAAATCA | 0.111
GTATTCAA | 0.187
ACGGAGCG | 0.2
AACAGAAT | 0.0169
ATGCAGTA | 0.0258
ACTTTAAT | 0.201
CTTCTAGA | 0.0189
ACCGTCCC | -0.187
GAAAGAGA | 0.0565
AACTTCCG | 0.294
ATCCGCTG | -0.18
AAGCTTTG | 0.0179
AAGATAGC | 0.157
TCAGGTCA | -0.0551
ATGTGAGC | -0.245
AACGTTCG | -0.132
CGTCCCGC | -0.213
ACTCGTGA | -0.128
ATATTGGC | -0.0325

Sequence | PBM E-score
CACCTGCG | -0.0338
CTCGGCAG | 0.0615
AAGTGCGT | -0.0255
CCGGGTGA | 0.0118
GCATAAAA | 0.19
AAGCACCT | -0.0904
AAGCTACA | -0.00205
CATCACGC | 0.128
ATGCTTAA | 0.159
CATTCCTC | 0.0201
GACCCTTA | -0.0167
AAGATTAA | 0.241
GAAACCTA | -0.113
AGCGGCCC | -0.299
AAATGCGT | 0.077
TCATGTAA | 0.213
ATTTGTAC | 0.0799
CATAGACA | 0.0146
GAGTCTGA | -0.171
ATGTTGCC | -0.105
GCGTTCAC | -0.0118
CAAGCCTG | -0.229
ACTACAGT | -0.0141
ACTTCTCC | 0.192
ATAGAGGG | -0.0434

Sequence | PBM E-score
ATACCTAT | 0.0494
CGAGAGAC | -0.208
CAATCCGC | -0.0291
AATGCAAG | -0.0298
CGTCTCAC | -0.115
CGTAGGTC | -0.205
TGGTAAAA | 0.232
ACTAAGAT | 0.204
AACATCAA | 0.28
GCGAGTGA | -0.0991
CTATTTAC | 0.233
AATCACGC | 0.0758
ATTGGGCG | -0.12
GAGCTGAA | 0.01
ATATATTG | 0.186
CTGGTATA | -0.194
TATTGCGA | 0.087
ACCGAGTA | -0.0936
GGCTTATA | -0.0706
TCCCGCCA | -0.161
CACCCAGG | -0.182
TCCAAGAA | 0.104
AAGCTAAG | -0.223
CCACGGAG | 0.365
TTCTCAAA | 0.183

Sequence | PBM E-score
CCAGTTTC | -0.173
GCTCTGCA | -0.301
AAGCTTAA | 0.0913
CACCACGG | -0.106
GGTCGTCA | -0.157
AACTACCA | 0.203
CTAAACCC | 0.0437
CAAACTTA | 0.196
ATTTTGGG | 0.0303
CACATACA | -0.00783
CCTAAACC | 0.00969
CTAGATCC | -0.105
ACGGTGAA | 0.111
GTCGTCAC | -0.0815
GCCTGTGA | -0.192
GGTCTCAA | -0.06
ATTATTAG | 0.144
CCCAACAA | 0.0113
CGACACAG | -0.194
AGCATGCT | -0.3
ACCGCCGG | 0.00111
GAATTAAA | 0.145
GTTGTTCA | 0.0942
TAGTACTA | 0.0139
CTACGTTA | 0.0635

Sequence | PBM E-score
AGCACTTA | -0.117
ATTAGGTC | 0.159
CTGTGTTC | -0.0512
AACGCATA | -0.0271
ACCGACGG | -0.0055
CGATGGCA | -0.136
CGCAATAG | -0.00083
TCCGAAGA | 0.39
CAATACCC | -0.0401
GTACAGTA | 0.023
AACAGTGA | -0.0221
TTACGCAA | 0.0762
CAGAAAGG | -0.0393
CCCCCGCA | -0.181
AGTCACAG | -0.22
GCGTCCAA | -0.144
GTGATAAA | 0.0786
CTTCAATA | 0.0945
TAGCACAA | -0.0323
TGGCGAAA | -0.0435
CGGAGAAC | 0.33
CAGGGAAG | -0.285
TACGCTCA | -0.0128
GAATTTGA | 0.144
GAGAATCC | 0.0458

Sequence | PBM E-score
TAAGACTA | -0.0422
CGTCTCAG | -0.148
AAAGATCG | 0.0203
ACCTCTCC | -0.114
CTTAATAC | 0.0573
GAAGGGAA | -0.158
AACTCGAG | -0.128
CATAGCTC | -0.163
CGAGCGTA | -0.0805
ACAGTGGA | 0.0793
CAGATTAC | 0.0158
ACGATGTA | -0.0164
CAGGGTCC | -0.163
CGATGATA | 0.163
CCCAATAC | 0.0578
ACCATAAA | 0.175
ATTTACCC | 0.0895
GGAGTGTA | 0.15
TAGACGAA | 0.0446
AGAGTGCA | -0.126
GAGTGTCA | 0.0947
AAGAACCC | -0.0332
AGGAACGG | 0.0393
CATAACAG | 0.00057
CTTAAAGA | 0.111

Sequence | PBM E-score
AACTTGTA | -0.00608
CCCAAGCG | -0.226
GCCCACCA | -0.222
CTTTGGTA | -0.0369
ATTAACAC | 0.302
GAGATCTA | -0.0723
CATATGAA | 0.192
GTACTCGA | -0.0681
TGTTACAA | 0.136
GTCCACGA | -0.255
AGCTAATC | 0.114
TAGCCAGA | -0.079
ACGCTCGC | -0.112
AGAGTCTG | -0.236
GGAGCTAC | 0.0015
AATTGTAA | 0.115
AGCCCAGC | -0.131
ACAGGGAA | -0.216
AAGTGCCT | -0.316
ACCCTGCG | -0.108
ATGTGTAC | -0.0287
AGCACTAC | -0.162
